Measured values from PubChem BioAssay AID2675 (National Center for Advancing Translational Sciences (NCATS), 2010).
In all, about 280,000 compounds went through this assay and about 100 (0.036%) were called active. Inconclusive results, whose numbers are uncertain, are shown with a selection of clear calls. The call rests on the fitted dose curve; in most records, active means well fitted inhibition curve with a large enough effect in the signal ratio, with a control signal flat (not every such curve was filed as active); inconclusive means small, poorly fitted or top-dose-only effect, or effect the other way, or a change in a side signal; inactive means no such curve, though single readings can be large or run the other way; the % refers to the signal ratio. Potencies of inconclusive entries are doubtful fits and often do not repeat. “Side channel” marks fits to a control or component signal instead of the main read-out.

Target: Muscleblind-like protein 1 (Homo sapiens) (UniProt Q9NR56)
UniProt Q9NR56, sequence (Q9NR56 whole entry, looked up): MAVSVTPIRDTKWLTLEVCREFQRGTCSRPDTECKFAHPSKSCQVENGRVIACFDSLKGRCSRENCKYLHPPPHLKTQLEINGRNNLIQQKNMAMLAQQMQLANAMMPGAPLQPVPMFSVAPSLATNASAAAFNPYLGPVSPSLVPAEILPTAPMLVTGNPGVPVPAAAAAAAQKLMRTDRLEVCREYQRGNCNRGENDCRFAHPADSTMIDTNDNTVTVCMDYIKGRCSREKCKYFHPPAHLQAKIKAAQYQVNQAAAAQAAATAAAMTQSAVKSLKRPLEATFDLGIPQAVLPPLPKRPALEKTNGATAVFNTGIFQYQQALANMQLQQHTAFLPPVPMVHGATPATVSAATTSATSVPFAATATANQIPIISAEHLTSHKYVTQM
Assay: qHTS Assay for Inhibitors of MBNL1-poly(CUG) RNA binding
Settings: TR-FRET MBNL1-His/biotin-(CUG)12 binding, 665/545 ratio; series mostly up to 57.5 µM
In short: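 His-tagged MBNL1 binding to biotinylated (CUG)12 RNA was measured by TR-FRET using terbium anti-His antibody (0.055 ng/ul final) and streptavidin-XL665 (5 nM final). Compounds were titrated 92 nM to 58 uM; 60 min at room temperature.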
Potency means the concentration at half of the fitted maximal effect; tags describe the fitted curve by direction and shape or compound fluorescence and quenching.

SMILES	Potency
CN1CCC2(CC1)C1CN(C)CC=C1C(C#N)=C(N)C2(C#N)C#N (centres undefined)	inconclusive: 14.1 µM [quencher, side channel, partial curve]
CCOC(=O)Cn1nnc(-c2ccc([N+](=O)[O-])cc2)n1	inconclusive: 14.1 µM [quencher, side channel, partial curve]
Cc1ccc2ccc(C(Nc3ccccn3)c3ccccc3)c(O)c2n1 (centres undefined)	inactive
COc1ccc(N2C(=O)C(Cl)=C(NCc3ccccc3)C2=O)cc1	inconclusive: 22.4 µM [quencher, side channel, partial curve]
COc1ccccc1/C=C/C=N/n1c(-c2ccncc2)n[nH]c1=S	inactive
COc1cc(CNC2CCCC2)c(Br)cc1OC1CCCC1	inactive
O=C(Nn1c(O)c(C=C2N=c3ccccc3=N2)sc1=S)c1ccccc1Cl	inconclusive: 28.2 µM [quencher, partial curve]
Cc1nn(C)c(C)c1NC(=O)CCCSc1nc(-c2ccco2)cc(C(F)(F)F)n1	inconclusive: 8.91 µM [quencher, side channel, partial curve]
O=C(Cn1cnc([N+](=O)[O-])n1)NC1CC1	inconclusive: 22.4 µM [quencher, side channel, single point]
COc1ccc([N+](=O)[O-])cc1NCc1ccccc1	inconclusive: 22.4 µM [quencher, side channel, single point]
CN1C(=O)c2ccc(C(=O)NCc3ccco3)cc2C1=O	inconclusive: 12.6 µM [quencher, partial curve]
COc1cc(/C=N/n2cnnc2)ccc1OS(=O)(=O)c1ccccc1[N+](=O)[O-]	inconclusive: 0.158 µM [quencher, side channel, full curve, poor fit]
CN(/N=C/c1cccnc1)c1cnc2ccccc2n1	inconclusive: 15.8 µM [quencher, side channel, partial curve]
CN(CCO)c1cc(N(C)CCO)c([N+](=O)[O-])cc1[N+](=O)[O-]	inconclusive: 10 µM [quencher, side channel, partial curve]
Cc1onc(-c2ccccc2Cl)c1C(=O)Nc1nnc(-c2ccc(F)cc2)s1	inactive
CC1(c2nnc(-c3ccncc3)o2)CC(c2ccc(F)cc2)=NO1 (centres undefined)	inconclusive: 50.1 µM [inhibitor, partial curve]
COCCn1cnc2c(c1=O)c1nc3ccccc3nc1n2/N=C/c1ccc(OC)c(OC)c1	inconclusive: 1.78 µM [quencher, side channel, full curve]
CCOC(=O)Cn1c(CN2CCN(C(c3ccccc3)c3ccccc3)CC2)nc2c1c(=O)n(C)c(=O)n2C	inconclusive: 0.158 µM [quencher, side channel, full curve, poor fit]
Cc1cc(C)c2cc3c(N)c(C(=O)N4CCOCC4)sc3nc2c1	inconclusive: 11.2 µM [quencher, side channel, partial curve]
COc1cc(SC#N)ccc1N=Cc1c(C)[nH]n(-c2ccc(Cl)cc2)c1=O	inactive

SMILES	Potency
Cc1ncoc1C(=O)Nc1ncc([N+](=O)[O-])s1	inconclusive: 11.2 µM [quencher, side channel, partial curve]
C[n+]1ccc(C(=O)Nc2ccccc2Cl)cc1	inconclusive: 28.2 µM [quencher, side channel, partial curve]
CCOc1ncccc1C(=O)Nc1ccc(Cl)c(S(=O)(=O)N2CCCC2)c1	inconclusive: 31.6 µM [fluorescent, single point]
CCOC(=O)C1CCCN(C(=O)c2cccc(NC(=O)C(CC)CC)c2)C1 (centres undefined)	inconclusive: 7.94 µM [fluorescent, side channel, single point]
Cc1ccc(CN2CCN(/N=C/c3ccco3)CC2)c(C)c1	inconclusive: 79.4 µM [inhibitor, single point]
NNc1nnc2c3cc(F)ccc3n(CCc3ccccc3)c2n1	inconclusive: 11.2 µM [quencher, side channel, partial curve]
COCCN(Cc1cc2cc3c(cc2nc1Cl)OCO3)C(=O)c1ccc(C)cc1	inconclusive: 31.6 µM [quencher, side channel, single point]
N=c1c(C(=O)NCCN2CCOCC2)cc2c(=O)n3ccccc3nc2n1CCc1ccccc1	inconclusive: 2 µM [quencher, side channel, full curve]
NC(=O)c1ccccc1NC(=S)NC(=O)CCc1ccccc1	inactive
CCOC(=O)C(NC(C)=O)C(O)c1ccc([N+](=O)[O-])cc1 (centres undefined)	inconclusive: 14.1 µM [quencher, side channel, partial curve]
Cc1ccc(N(C)C(=O)C2CCCN2S(=O)(=O)c2cccc3nsnc23)cc1 (centres undefined)	inconclusive: 25.1 µM [quencher, side channel, partial curve]
CCCn1c(=O)c2sccc2n2c(CCCC(=O)NCc3cccnc3)nnc12	inactive
CCC1=NN(C(=O)CCc2ccc3c(c2)OCO3)C(O)(C(F)(F)F)C1 (centres undefined)	inactive
CN(Cc1ccccc1)C(=O)CN(Cc1ccccc1)S(C)(=O)=O	inconclusive: 39.8 µM [inhibitor, single point]
Cc1[nH]c2ccccc2c1N=Nc1cc(C(=O)O)cc(C(=O)O)c1	inconclusive: 17.8 µM [quencher, side channel, partial curve]
COc1ccc(Cc2nc3ccc(C(=O)NC(C)Cc4ncccc4C)cc3o2)cc1OC (centres undefined)	inconclusive: 31.6 µM [quencher, side channel, partial curve]
Cn1cc(C(=O)NCc2cccs2)c(=O)c2cc(S(=O)(=O)N3CCCC3)ccc21	inconclusive: 14.1 µM [fluorescent, side channel, partial curve]
COc1ccc(NC(=O)c2ccc3c(c2)C(=O)N(CC2CCCO2)C3=O)cc1 (centres undefined)	inconclusive: 12.6 µM [quencher, partial curve]
CN1/C(=C\C=C2/C(=O)Oc3ccccc3C2=O)C(C)(C)c2ccccc21	inconclusive: 20 µM [quencher, side channel, partial curve]
NC(=O)c1ccc(C(=O)c2ccc([N+](=O)[O-])cc2)cc1	inconclusive: 4.47 µM [quencher, side channel, full curve]

SMILES	Potency
O=C1/C(=C/c2cccnc2)Sc2ccccc21	inconclusive: 15.8 µM [quencher, side channel, partial curve]
Cc1c(C(C)(C)O)[nH]c2cc(C(F)(F)F)ccc12	inactive
CC1(C)CC(=O)C2=C(C1)N=C1c3ccccc3C(=O)C1C2c1ccc(Cl)cc1 (centres undefined)	inconclusive: 31.6 µM [quencher, side channel, single point]
CCCCC(=O)N(Cc1ccc2c(c1)OCO2)Cc1nc2ccccc2c(=O)[nH]1	inactive
CCn1ncc(Br)c1C(=O)Nc1cc([N+](=O)[O-])ccc1C	inconclusive: 15.8 µM [quencher, side channel, partial curve]
CN(C)c1ccc(/C=N/N=C(N)N)cc1[N+](=O)[O-]	inconclusive: 12.6 µM [quencher, side channel, partial curve]
CC(=O)OCCCNc1cc(Sc2ccc(Cl)cc2)c2nonc2c1[N+](=O)[O-]	inconclusive: 1.58 µM [quencher, side channel, full curve]
Cc1cccn2c(=O)c3cc(C(=O)O)n(C)c3nc12	inconclusive: 25.1 µM [quencher, side channel, single point]
NC(=O)c1cn(-c2ccccc2)nc1-c1cc2ccccc2oc1=O	inconclusive: 17.8 µM [quencher, side channel, partial curve]
CCOC(=O)C1CCN(C(=O)c2cc3cc4ccc(C)cc4nc3o2)CC1	inconclusive: 28.2 µM [quencher, side channel, partial curve]
Oc1ccc(/C=N/Nc2ccc(Cl)nn2)c(O)c1O	inconclusive: 20 µM [quencher, side channel, partial curve]
O=C1c2ccccc2C(=O)N1c1ccc(S(=O)(=O)N2CCCCC2)cc1	inconclusive: 12.6 µM [quencher, side channel, partial curve]
CCN(CC)C(=O)C1CCCN(c2ccc([N+](=O)[O-])cc2[N+](=O)[O-])C1 (centres undefined)	inconclusive: 17.8 µM [quencher, side channel, partial curve]
CCCCCn1c(=NC(=O)c2ccco2)c(C(=O)OCC)cc2c(=O)n3ccccc3nc21	inconclusive: 8.91 µM [quencher, side channel, partial curve]
O=C(CS(=O)c1ccccc1[N+](=O)[O-])Oc1ccc(Br)cc1 (centres undefined)	inconclusive: 5.01 µM [quencher, side channel, full curve]
CC1CCCN(C(=O)Cn2nnc(-c3ccc(S(C)(=O)=O)cc3)n2)C1 (centres undefined)	inactive
C[C@@H](C(=O)NCCc1c[nH]c2ccccc12)[C@@H]1C[C@@]1(C)[C@@H](NC(=O)OCc1ccccc1)c1ccccc1	inconclusive: 1.12 µM [inhibitor, full curve, poor fit]
Cc1ccc(Nc2c([N+](=O)[O-])c(=O)n(C)c3ccccc23)cc1	inconclusive: 11.2 µM [quencher, side channel, partial curve]
CN(C)S(=O)(=O)c1cc(NC(=O)c2cc(=O)c3ccccc3o2)ccc1Cl	inconclusive: 12.6 µM [quencher, side channel, partial curve]
